# PubChem BioAssay (NCI)
#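 Compound exposure: 48 hours, 5 concentrations, 96-well plates. Abbreviation: GI50, concentration required for 50% inhibition of growth. TGI marks complete inhibition of growth.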
# Test system: NCI-H322M lung
# Test: NCI tumour cell line growth inhibition, 48 h
smiles,measurement,value
CC(=O)c1ccc(Nc2nc(SCCC(C)C)nc(-c3ccc(F)cc3)c2C#N)cc1,GI50,7.18 µM
same,TGI,56.4 µM
